Assay results: paper PMC12040169 (PLOS Biology, 2025)
The list shows a part of the results.

System: T1, C. trachomatis L2/434/Bu expressing GFP (CTL2-GFP)
T1 construct: L2/434/Bu GFP intracellular growth in HeLa cells
Parameters: species or system HeLa; C. trachomatis total inclusion area by high-content imaging, normalised to DMSO
Conditions: total inclusion area; 28.5 h, 10 µM; inhibitor
How it was run: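 After bulk GFP and resorufin fluorescence reads, cells were fixed, stained with Hoechst and imaged by high-content microscopy. Inclusion area and number (GFP) stood in for chlamydial growth, nuclei count (Hoechst) for host cell viability. MICs were derived as for the bulk readout.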

Row | Compound | % of control remaining
1 | Cc1cc(=O)n(CC(=O)NCCn2ccnc2)c2ccccc12 [CBK281583] | 70.026
2 | COc1cc(C2C(C#N)=C(N)OC3=C2C(=O)CC(c2ccccc2)C3)cc(Br)c1O (stereo not shown) [CBK261587] | 111.016
3 | COc1ccc(Cl)cc1NC(=O)Nc1ccc(C(=O)N2CCOCC2)cc1 [CBK266958] | 107.237
4 | CCN(CC)C(=O)c1sccc1NS(=O)(=O)Cc1ccccc1 [CBK050393] | 91.5888
5 | CCOC(=O)c1ccccc1NS(=O)(=O)c1ccc(C(F)(F)F)cc1[N+](=O)[O-] [CBK050584] | 68.1562
6 | NS(=O)(=O)c1ccc(/N=C/c2cccc(O)c2O)cc1 [CBK261533] | 98.6728
7 | CN(C)c1ccccc1-c1cc(Nc2ccc3cn[nH]c3c2)ncn1 [CBK090850] | 34.797
8 | CCCN1CCN(c2ncc(CNS(=O)(=O)c3ccc(Cl)cc3)cn2)CC1 [CBK010261] | 83.0212
9 | O=C(CCn1c(C(F)(F)F)cc2cccnc21)N1CCC(O)CC1 [CBK284887] | 128.756
10 | O=C(c1cccc(F)c1)N1CCCC1c1cc2cccnc2[nH]1 (stereo not shown) [CBK285081] | 107.795
11 | CCc1cc(Br)ccc1S(=O)(=O)Nc1ccnn1CC [CBK044900] | 90.0468
12 | CCSc1nnc(-c2cccc(C)c2)n1CC1CCCCC1 [CBK085419] | 104.081
13 | CCOc1ccc(Cl)cc1CCNC(=O)NC(C)c1nnnn1C (stereo not shown) [CBK305923] | 94.2712
14 | O=C(COc1ccc(S(=O)(=O)N2CCCCC2)cc1Cl)N1CCc2ccccc2C1 [CBK269510] | 102.968
15 | O=C(NCc1ccc(F)cc1)Nc1ccccc1F [CBK115584] | 90.6082
16 | CCc1cccc2c(CN3CCc4nc(C)[nH]c(=O)c4C3)c[nH]c12 [CBK283931] | 81.451
17 | Cc1ccc(NC(=O)C2CC(=O)Nc3nc(SCc4ccccc4C)[nH]c(=O)c32)c(C)c1 (stereo not shown) [CBK294438] | 113.316
18 | O=C(Nc1cccc(-c2cccc(F)c2)c1)c1ccccc1Cn1cncn1 [CBK285735] | 101.921
19 | CNC(=O)c1sc2ccccc2c1C1CN(Cc2cn(C)c3cc(OC)ccc23)CCO1 (stereo not shown) [CBK286087] | 123.077
20 | COC(=O)COc1ccc(S(=O)(=O)NCc2ccc3c(c2)OCO3)cc1C [CBK267172] | 114.515
21 | COc1ccnc(N2CCN(C(=O)c3cnn(C)c3C3CC3)CC2)n1 [CBK304900] | 25.5019
22 | O=C1/C(=C/c2ccc(OCc3ccccc3Cl)c(Cl)c2)SC(=S)N1Cc1cccnc1 [CBK264702] | 113.036
23 | COC(=O)[C@@H](NC(=O)C1CCN(C(=O)OCc2ccccc2)CC1)c1ccccc1 [CBK081468] | 85.6406
24 | CCOC(=O)CNS(=O)(=O)c1ccc(C(F)(F)F)cc1[N+](=O)[O-] [CBK034446] | 72.1487
25 | C=CCn1c2cc(C)sc2c2cnn(CC(=O)N(C)C)c(=O)c21 [CBK284164] | 71.4686
26 | O=C(COc1ccc(Cl)cc1Br)NNC(=O)c1ccc(O)cc1 [CBK262950] | 104.717
27 | CN1CCCC1CCOc1ncccc1OCCO (stereo not shown) [CBK039176] | 119.027

Row | Compound | % of control remaining
28 | O=C(NCN1CCN(c2ccc([N+](=O)[O-])cc2)CC1)c1cccnc1 [CBK264909] | 84.5323
29 | c1ccc(C(NCc2nnc(-c3ccco3)o2)C2CCC2)cc1 (stereo not shown) [CBK305818] | 59.9816
30 | Cc1c(C)n(Cc2ccco2)c2ncnc(NCCC(=O)O)c12 [CBK307564] | 13.732
31 | O=C1Nc2ccc(-c3cccc(C(F)(F)F)c3)cc2C(=O)N2CCN(C(=O)C3CC3)C[C@H]12 [CBK289585] | 95.1123
32 | CN(C)C(=O)c1ccc(-c2ccc(OC3CCN(C(=O)CCc4cccnc4)CC3)nc2)cc1 [CBK155049] | 74.0588
33 | Cc1nc2cc(/N=C/c3c[nH]c4ccccc34)ccc2n1C [CBK262085] | 112.364
34 | Cn1ccnc1CN(CCCn1ccnc1)Cc1ccccc1F [CBK283022] | 74.2051
35 | O=C(Cn1c(-c2cccs2)cc2cccnc21)NC1CC1 [CBK282552] | 110.306
36 | CCC(NC(=O)c1cc(CC(C)C)nn1CC)c1cn2cccnc2n1 (stereo not shown) [CBK307505] | 105.887
37 | O=C(Cc1c(F)cccc1F)Nc1ccc2[nH]ccc2c1 [CBK144712] | 116.423
38 | O=C(CCc1nc2ccccc2s1)Nc1nc2ccccc2[nH]1 [CBK287988] | 93.3949
39 | COc1ccc(C(=O)N2CCC3(CCCN(C(=O)CN4C(=O)CSC4=O)C3)C2)cc1OC (stereo not shown) [CBK137088] | 100.055
40 | COCc1nc(NCCCn2c(C)cccc2=O)cc(C2CCOC2)n1 (stereo not shown) [CBK306845] | 70.1008
41 | Cc1ccc(Cn2cnc3c(cnn3-c3ccc(C)c(C)c3)c2=O)cc1 [CBK287540] | 110.934
42 | O=C1NC(=S)S/C1=C\c1cn(-c2ccccc2)nc1-c1ccc(OCc2ccccc2)cc1 [CBK265496] | 106.024
43 | CSc1ncc(Cl)c(C(=O)Nc2sc3c(c2C(=O)NCc2cccnc2)CCC3)n1 [CBK268710] | 81.8419
44 | CCc1nc2ccc(C(=O)N(C)Cc3ccccc3)cn2c1N(C=O)CC [CBK145936] | 93.7313
45 | COc1ccc2c(c1)CC1(CCC(NCCCC(=O)c3ccc(F)cc3)CC1)C2 (stereo not shown) [CBK016054C] | 26.8747
46 | CC(=O)Nc1cc(I)cc(C(=O)O)c1 [CBK026452G] | 90.4006
47 | CCCC/C=C/c1cncc(N2CCN(Cc3ccccn3)CC2)n1 [CBK066096] | 102.856
48 | CCOC(=O)C1(C2CCCCC2)CCN(C(=O)c2cc(C)[nH]n2)CC1 [CBK137100] | 104.195
49 | CCCCNC(=O)c1ccc2nc(CC)c(N(C)C(=O)C3CCCCC3)n2c1 [CBK145791] | 112.073
50 | Cc1ccc(C(NC(=O)C2CCN(Cc3ccc(Cl)cc3)CC2)c2ccccn2)cc1 (stereo not shown) [CBK148007] | 87.4286
51 | CN1CCC2(CC1)CC(=O)c1cc(-c3ccc(C(=O)N(C)CCC#N)cc3)ccc1O2 [CBK156518] | 86.0409
52 | c1ccc(CNc2nc(-c3ccco3)cn3ccnc23)cc1 [CBK037955] | 119.118
53 | Cc1nc2c(OCc3ccccc3)cccn2c1N(C)C(=O)C1CCCCC1 [CBK147884] | 105.111
54 | O=C(O)c1cccc(-c2ccc(/C=N/NC(=O)c3sc4ccccc4c3Cl)o2)c1 [CBK263863] | 105.777

Row | Compound | % of control remaining
55 | Cc1nccn1CCNC(=O)CCc1nc2ccccc2n1C [CBK281978] | 101.081
56 | COC(=O)c1ccc(-c2ccc3[nH]ccc3c2)nc1 [CBK160174T] | 98.5425
57 | Cc1cccc(N(CC(=O)Nc2ccc3c(c2)oc2ccccc23)S(=O)(=O)c2ccccc2)c1 [CBK264813] | 116.171
58 | Fc1ccccc1C1CCN(c2cncc(N3CCNCC3)n2)CC1 [CBK172236G] | 30.0276
59 | COc1ccc(NC(=O)c2ccc(-c3nnn[nH]3)cc2)cc1OC [CBK295138] | 111.751
60 | O=C(Cc1cccc2ccccc12)NC(=S)Nc1ccc(S(=O)(=O)N2CCCCC2)cc1 [CBK266283] | 93.7841
61 | CC(C)(C)c1ccc(-c2cc3ncccc3nc2N)cc1 [CBK081199] | 86.847
62 | O=C(Nc1ncc(-c2ccccc2)s1)c1cccc([N+](=O)[O-])c1 [CBK157055] | 50.0716
63 | CCn1cc(CN(CCN(C)C)Cc2ccc(C)o2)c(C)n1 [CBK282845] | 102.599
64 | CC(C)(C)c1cn(C[C@H]2CC3CCN2C[C@@H]3C(=O)Nc2nccs2)nn1 (stereo partly shown) [CBK288737] | 107.061
65 | O=C(Nc1ccc(F)cc1)c1ccsc1NS(=O)(=O)Cc1ccccc1 [CBK042303] | 108.323
66 | CC(OCc1ccccc1)C(=O)NCC1(N2CCOCC2)CCSC1 (stereo not shown) [CBK305678] | 56.0381
67 | CCN(CC(=O)NCc1ccc(Cl)cc1)S(=O)(=O)c1ccc(OC)cc1 [CBK305836] | 63.8975
68 | COc1ccc2c(c1)C1(CC(=O)N(CCc3scnc3C)C1=O)C(=O)N2Cc1ccccc1 (stereo not shown) [CBK075240] | 97.6548
69 | N#Cc1ccccc1CSCCNC(=O)c1ccc(NC(=O)c2ccco2)s1 [CBK296749] | 86.1113
70 | COc1ccc(C)cc1S(=O)(=O)N(CC(=O)N1CCN(C)CC1)c1cccc(C(F)(F)F)c1 [CBK269355] | 79.3021
71 | CC(C)c1ccc(CNC(=O)C2(c3ccccc3)CCCC2)cc1 [CBK161531] | 85.9165
72 | CCc1onc(C)c1NC(=O)NC1CC2(CCCC2)Oc2ccccc21 (stereo not shown) [CBK305890] | 40.6122
73 | COC(=O)CNC(c1ccccc1)c1cc(Br)ccc1NC(C)=O (stereo not shown) [CBK262976] | 92.2463
74 | COc1ccc(-c2ccc(OCCNC(=O)c3cccc(F)c3)nn2)cc1 [CBK294428] | 96.071
75 | O=C(CCc1cccnc1)N1CCCc2ccccc21 [CBK200344] | 84.7549
76 | COc1ccc(NC(=O)C2CCCN2S(=O)(=O)c2ccc(OC)cc2)cc1 (stereo not shown) [CBK070001] | 112.267
77 | O=C(CCCc1nc(-c2ccccc2Cl)no1)NCc1cccnc1 [CBK269516] | 87.6144
78 | COc1ccc(-c2cccc(CC3(C(=O)NCc4cccs4)CCOCC3)c2)cc1 [CBK286514] | 96.2614
79 | O=C(Nc1cccc(-c2nc3ncccc3o2)c1)c1ccc(Cl)c([N+](=O)[O-])c1 [CBK262845] | 75.0233
